Measurements reported in the supplement of paper PMC11876631.
± gives the standard deviation of the averaged measurements. Laboratory Escherichia coli strains with one amino-acid change in an essential protein, pooled on minimal glucose agar with carbenicillin or gentamicin at twice the control MIC (plus kanamycin and chloramphenicol for the plasmids), 48 h. Fold change of barcode share against drug-free plates; higher = less susceptible. Active = above 20 in both replicates (the paper's putatively resistant). '<' = one read or none on drug, '>' = one read or none on a drug-free plate. Shares are relative, so most strains fall below 1 when a few take over. Listed are strains with at least 15 reads on both drug-free plates, and hits; most hits rest on fewer reference reads. Replicate rank correlation about 0.5. Edits are read from barcodes.

B1: argE; a variant is named by its letters at X, in order (parent)
chain: MKNKLPPFIEIYRALIATPSISATEEALDQSNADLITLXADWFKDLGFNVEVQPVPGTRNKFNMLASIGQGAGGLLLAGHTDTVPFDDGRWTRDPFTLTEHDGKLYGLGTADMKGFFAFILDALRDVDVTKLKKPLYILATADEETSMAGARYFAETTALRPDCAIXGEPTSLQPVRAHKGHISNAIRIQGQSGHSSDPARGVNAIELMHDAIGHILQLRDNLKERYHYEAFTVPYPTLNLGHIHGGDASNRICACCELHMDIRPLPGMTLNELNGLLNDALAPVSERWPGRLTVDELHPPIPGYECPPNHQLXEVXEKLLGAKTEVXNYCTEAPFIQTLCPTLVLGPGSINQAHQPDEYLETRFIKPTRELITQVIHHFCWH
B2: purC; numbered along this chain (parent)
chain: MQKQAELYRGKAKTVYSTENPDLLVLEFRNDTSAGDGARIEQFDRKGMVNNKFNYFIMSKLAEAGIPTQMERLLSDTECLVKKLDMVPVECVVRNRAAGSLVKRLGIEEGIELNPPLFDLFLKNDAMHDPMVNESYCETFGWVSKENLARMKELTYKANDVLKKLFDDAGLILVDFKLEFGLYKGEVVLGDEFSPDGSRLWDKETLEKMDKDRFRQSLGGLIEAYEAVARRLGVQLD
B3: metG; numbered along this chain (parent)
chain: MTQVAKKILVTCALPYANGSIHLGHMLEHIQADVWVRYQRMRGHEVNFICADDAHGTPIMLKAQQLGITPEQMIGEMSQEHQTDFAGFNISYDNYHSTHSEENRQLSELIYSRLKENGFIKNRTISQLYDPEKGMFLPDRFVKGTCPKCKSPDQYGDNCEVCGATYSPTELIEPKSVVSGATPVMRDSEHFFFDLPSFSEMLQAWTRSGALQEQVANKMQEWFESGLQQWDISRDAPYFGFEIPNAPGKYFYVWLDAPIGYMGSFKNLCDKRGDSVSFDEYWKKDSTAELYHFIGKDIVYFHSLFWPAMLEGSNFRKPSNLFVHGYVTVNGAKMSKSRGTFIKASTWLNHFDADSLRYYYTAKLSSRIDDIDLNLEDFVQRVNADIVNKVVNLASRNAGFINKRFDGVLASELADPQLYKTFTDAAEVIGEAWESREFGKAVREIMALADLANRYVDEQAPWVVAKQEGRDADLQAICSMGINLFRVLMTYLKPVLPKLTERAEAFLNTELTWDGIQQPLLGHKVNPFKALYNRIDMRQVEALVEASKEEVKAAAAPVTGPLADDPIQETITFDDFAKVDLRVALIENAEFVEGSDKLLRLTLDLGGEKRNVFSGIRSAYPDPQALIGRHTIMVANLAPRKMRFGISEGMVMAAGPGGKDIFLLSPDAGAKPGHQVK

Variants of: B1
Assay: barcode share on antibiotic plates over drug-free plates; higher = less susceptible
Conditions: with Escherichia coli (laboratory strain); antibiotic: carbenicillin; 2× MIC (3.1 µg/mL)
Description: (§1)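 A pool of E. coli strains, each edited to carry one amino-acid change in an essential protein, was grown for 48 h on minimal glucose agar with or without antibiotic; strain barcodes were sequenced; mean of two replicates.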

Variant	fold change of barcode share
LIVVV I216A	0.473 ± 0.063
WIVVV	0.293 ± 0.03
LIVWV	0.17 ± 0.14
LAVVV	1.14 ± 0.47
AIVVV	0.522 ± 0.11
PIVVV	0.444 ± 0.31
LIVVP	0.294 ± 0.14
LIVVA	0.296 ± 0.048
LIVVQ	0.314 ± 0.03
LIVVD	0.343 ± 0.067
DIVVV	0.333 ± 0.03
LIVPV	1.21 ± 1.4
LQVVV	1.37 ± 0.4
LIVVV M209W	0.232 ± 0.16
LIVVV M209Q	0.601 ± 0.37
QIVVV	0.305 ± 0.088
LDVVV	> 28.4 [active]

Same assay, conditions: with Escherichia coli (laboratory strain); antibiotic: gentamicin; 2× MIC (MIC 0.45 µg/mL)

Variant	fold change of barcode share
LIVVV I216A	0.00516 ± 0.00088
WIVVV	0.0133 ± 0.011
LIVWV	< 0.00747
LAVVV	0.00621 ± 0.002
AIVVV	0.00892 ± 0.0069
PIVVV	0.00678 ± 0.0046
LIVVP	0.00812 ± 0.004
LIVVA	0.0101 ± 0.0086
LIVVQ	0.00538 ± 0.0037
LIVVD	0.0127 ± 0.012
LIVVW	0.0319 ± 0.021
DIVVV	0.00586 ± 0.0022
LIVPV	< 0.00871
LIVAV	< 0.00402
LQVVV	0.0177 ± 0.012
LIVVV M209W	< 0.0154
LIVVV M209Q	< 0.0109
LIWVV	0.00928 ± 0.0044
QIVVV	0.0116 ± 0.011
LIAVV	< 0.00987
LIPVV	0.00992 ± 0.0015
LIQVV	0.00822 ± 0.0013
LIDVV	< 0.00697

Variants of: B2
Assay: as above
Conditions: with Escherichia coli (laboratory strain); antibiotic: gentamicin; 2× MIC (MIC 0.45 µg/mL)
Description: as §1

Variant	fold change of barcode share
V25P	< 0.0146
V25W	< 0.00992
V25A	< 0.0142
V25Q	0.0342 ± 0.03
L189P	0.023 ± 0.015
L189Q	0.00493 ± 0.0033
L189A	0.00455 ± 0.00046
L189W	0.00393 ± 0.0022
L24Q	< 0.0203
L24A	< 0.0168
L24W	0.01 ± 0.0043
V89A	0.0113 ± 0.0059
V89W	0.0524 ± 0.05
V188Q	0.0109 ± 0.011
V188A	0.00296 ± 0.0018
V188W	0.0112 ± 0.0092
V188D	0.0157 ± 0.0096
L26P	< 0.01
L26Q	< 0.0177

Same assay, conditions: with Escherichia coli (laboratory strain); antibiotic: carbenicillin; 2× MIC (3.1 µg/mL)

Variant	fold change of barcode share
V25W	0.245 ± 0.17
L189P	0.767 ± 0.14
L189Q	0.356 ± 0.15
L189A	0.427 ± 0.092
L189W	0.369 ± 0.1
V89A	0.478 ± 0.18
V89W	0.251 ± 0.11
V188Q	0.512 ± 0.13
V188A	0.302 ± 0.12
V188W	0.217 ± 0.14
V188P	> 29.6 [active]
V188D	1.41 ± 0.49

Variants of: B3
Assay: as above
Conditions: with Escherichia coli (laboratory strain); antibiotic: carbenicillin; 2× MIC (3.1 µg/mL)
Description: as §1

Variant	fold change of barcode share
L27A	0.133 ± 0.039
L27Q	0.284 ± 0.0087
M219Q	0.40937 ± 0.0002
M219D	0.247 ± 0.17
M219A	0.414 ± 0.13
M219P	0.536 ± 0.26
F485D	0.554 ± 0.37
F485W	0.126 ± 0.028
F485Q	0.361 ± 0.064
F485A	0.246 ± 0.077
V323A	0.302 ± 0.042
V323Q	1.24 ± 0.27
V323P	0.556 ± 0.097
V382Q	0.178 ± 0.062
W35A	0.371 ± 0.22
W35Q	0.333 ± 0.019
L496Q	0.324 ± 0.2

Same assay, conditions: with Escherichia coli (laboratory strain); antibiotic: gentamicin; 2× MIC (MIC 0.45 µg/mL)

Variant	fold change of barcode share
L27A	0.0181 ± 0.0027
L27Q	< 0.0101
M219Q	0.549 ± 0.77
M219D	< 0.00676
M219A	< 0.00708
M219P	0.0136 ± 0.0026
F485D	< 0.00308
F485W	< 0.00615
F485Q	< 0.00498
F485A	< 0.00609
V323A	< 0.0042
V323Q	0.0244 ± 0.013
V323P	< 0.0116
V382Q	0.0267 ± 0.018
W35A	< 0.00515
W35Q	< 0.01
L496Q	< 0.0105
